Among all 310,000 compounds or so, about 14,000 (4.5%) showed an effect of 50% or more. Effects have a minus sign here. The list shows a part of the results.
biological target: human ether-à-go-go-related gene (hERG) potassium channel (human, UniProt Q12809); assay: primary screen, population patch clamp on CHO cells stably expressing hERG
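Also: peak tail current of the secondary pulse compared with the same well before compound.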

human ether-à-go-go-related gene (hERG) potassium channel, sequence (Q12809 whole entry, looked up): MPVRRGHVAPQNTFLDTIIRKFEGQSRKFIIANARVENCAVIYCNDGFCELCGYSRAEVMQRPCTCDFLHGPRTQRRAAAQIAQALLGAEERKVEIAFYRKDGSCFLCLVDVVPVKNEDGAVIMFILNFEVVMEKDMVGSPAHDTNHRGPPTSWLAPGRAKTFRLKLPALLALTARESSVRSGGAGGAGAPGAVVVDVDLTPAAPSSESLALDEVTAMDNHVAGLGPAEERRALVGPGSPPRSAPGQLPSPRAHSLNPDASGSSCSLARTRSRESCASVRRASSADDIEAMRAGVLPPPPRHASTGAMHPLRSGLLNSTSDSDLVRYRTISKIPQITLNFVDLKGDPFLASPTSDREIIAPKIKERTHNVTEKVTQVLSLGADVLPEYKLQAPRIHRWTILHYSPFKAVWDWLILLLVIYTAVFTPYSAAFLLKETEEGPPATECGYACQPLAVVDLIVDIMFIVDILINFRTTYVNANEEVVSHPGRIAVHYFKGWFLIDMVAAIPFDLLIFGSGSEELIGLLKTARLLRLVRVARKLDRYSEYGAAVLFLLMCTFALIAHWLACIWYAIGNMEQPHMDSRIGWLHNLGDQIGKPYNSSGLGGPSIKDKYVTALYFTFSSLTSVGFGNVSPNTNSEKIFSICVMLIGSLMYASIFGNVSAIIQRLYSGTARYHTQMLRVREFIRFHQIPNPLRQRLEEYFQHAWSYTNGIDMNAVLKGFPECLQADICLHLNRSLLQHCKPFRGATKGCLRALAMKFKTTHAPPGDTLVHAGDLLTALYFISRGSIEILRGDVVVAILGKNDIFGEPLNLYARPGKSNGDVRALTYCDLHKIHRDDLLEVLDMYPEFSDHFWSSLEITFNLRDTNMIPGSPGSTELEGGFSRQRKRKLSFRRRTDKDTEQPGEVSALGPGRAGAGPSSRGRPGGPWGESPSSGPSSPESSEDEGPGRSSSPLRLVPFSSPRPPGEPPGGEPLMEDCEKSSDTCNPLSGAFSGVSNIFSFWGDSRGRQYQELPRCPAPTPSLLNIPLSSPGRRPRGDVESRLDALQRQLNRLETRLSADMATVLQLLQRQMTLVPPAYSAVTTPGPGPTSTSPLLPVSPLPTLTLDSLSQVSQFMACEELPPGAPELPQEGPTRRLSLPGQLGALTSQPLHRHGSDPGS

SMILES	hERG current change (%, negative = inhibition) at 10uM [%]
CN(C)c1ccnc(Oc2ccc(F)cc2)c1C#N	-1.84
COc1ccc(NC(=S)N2CCC(NC(=O)c3ccc(F)cc3)CC2)cc1	-13
COc1cccc(NCc2ccc([N+](=O)[O-])s2)c1	-51
O=C1CNC(=S)N1CCCn1ccnc1	-0.318
O=C(CN1C(=O)NC(Cc2c[nH]c3ccccc23)C1=O)NCCc1ccc(F)cc1 (stereo not drawn)	10.1
Cn1c(=O)oc2cc(S(=O)(=O)N3CCCC(C(=O)Nc4nccs4)C3)ccc21 (stereo not drawn)	-15.4
Cc1cc([N+](=O)[O-])nn1CCCC(=O)Nc1cc(Oc2ccc(F)cc2)cc([N+](=O)[O-])c1	-7.43
O=C(NC1CCS(=O)(=O)C1)c1cccs1 (stereo not drawn)	22.2
CC(C(=O)NCCSCc1cccc(Cl)c1)N(c1ccccc1)S(C)(=O)=O (stereo not drawn)	-15
C=CCc1c(NCCO)nc(C)[nH]c1=O	12.5
COc1ccc(CCN2C(=O)NC(NC(=O)CCc3ccccc3)(C(F)(F)F)C2=O)cc1OC (stereo not drawn)	-4.65
Cl.O=C(NN1CCN(Cc2ccccc2Cl)CC1)c1ccc(Cl)cc1	-10.6
Clc1ccc(-c2nnc(Sc3nc4ccccc4o3)c3ccccc23)cc1	-2.83
O=C(CSc1c2c(nc3ccc(Cl)cc13)CCCC2)NCCCN1CCOCC1	-7.17
Cc1cc(C)c2nc(-c3ccccn3)cc(C(=O)n3cccn3)c2c1	22.9
Nc1cc[n+](CC(=O)Nc2ccccc2)cc1.[Cl-]	9.51
CC(O)[C@H]1CN=C(N)N1CC1CCCCC1 (stereo partly drawn)	-2.41
COc1ccc(/C=C2/C(=O)OCc3cc(OC)c(OC)cc32)cc1	-39.3
COC(=O)c1cc(NC(=O)CSc2nncn2C)cc(C(=O)OC)c1	-8.96
Cc1cc(C)cc(NC(=O)CSc2nc3[nH]ncc3c(=O)[nH]2)c1	11.8
COc1ccc(S(=O)(=O)N2CCC(C(=O)Nc3nccs3)CC2)cc1	8.87
COc1ccc(CNC(=O)c2cc(=O)c3cc(C)ccc3o2)cc1	2.27
CC1CC(C)(C)CC2(C1)NC(=O)N(CC(=O)N(Cc1ccccc1)c1ccccc1)C2=O (stereo not drawn)	-5.59

SMILES	hERG current change (%, negative = inhibition) at 10uM [%]
COc1ccc(N2CCN(C(=O)CNC(=O)c3ccc(Br)o3)CC2)cc1	-6.01
CCCCCC(=O)N/N=C/c1ccco1	9.79
CC1CC(C)CN(CC(O)COCc2ccccc2)C1.Cl (stereo not drawn)	-7.79
O=C(NNC(=S)Nc1ccccc1)c1ccc(O)cc1	15.9
CCN1CCN(CCCNC(=O)c2cc3sccc3n2CC)CC1	-40.8
O=c1[nH]cnc2sc3c(c12)CCC3	12.2
CC(NC(=O)c1c(F)cccc1Cl)c1ccc(-n2ccnc2)cc1 (stereo not drawn)	-27
O=C(/C=C/c1c[nH]c2ccccc12)c1ccccc1	16.2
O=C(O)c1cccc(N2C(=O)C3CC=C(Cl)CC3C2=O)c1 (stereo not drawn)	3.3
COc1ccc(C(C#N)N2N=C(C)CC2c2ccccc2)cc1OC (stereo not drawn)	-5.58
C1=C[C@@H]2CCN(Cc3ccccc3)Cc3cccc(c32)C1	-50.6
COc1cccc(C(O)c2nccn2Cc2ccccc2)c1OC (stereo not drawn)	15.6
CSc1nc2ccc(NC(=O)C3CC(=O)N(Cc4ccco4)C3)cc2s1 (stereo not drawn)	-44.6
COc1ccc(CCNC(=O)C2CCC(CNS(=O)(=O)c3ccccc3)CC2)cc1OC (stereo not drawn)	-18.4
C=CCc1ccc(OCCOc2ccc(/C=N/n3cnnc3)cc2OCC)c(OC)c1	6.66
CC(C)(C)c1cc(N)n2nc(C(C)(C)C)cc2n1	24.6
O=S(=O)(Nc1ccc2c(c1)nc1n2CCOC1)c1ccccc1	-7.78
COC(=O)CCN(C(=O)c1ccc(Cl)c([N+](=O)[O-])c1)c1ccccn1	-12.2
O=C(c1ccccc1Br)N1CCN(Cc2ccc3c(c2)OCO3)CC1	6.79
Clc1cccc(-c2csc(Nc3cccnc3)n2)c1	9.82
CCCCC(=O)Nc1cccc(-c2nnc(-c3ccccc3)o2)c1	-31
COc1ccc(N(CC(=O)Nc2cc(Cl)ccc2OC)S(=O)(=O)c2c(C)[nH]c(=O)[nH]c2=O)cc1	9.92
COc1ccc(/C=C2\SC(=S)N(NC(=O)c3ccncc3)C2=O)cc1OC	-3.31

SMILES	hERG current change (%, negative = inhibition) at 10uM [%]
Cc1ccc(NC(=O)Cn2cc(C(F)(F)F)cc(Cl)c2=O)cc1Cl	20.1
COc1ccc(C(C(=O)Nc2ccc(F)cc2)N(C(=O)Cn2nnc3ccccc32)C2CC2)cc1 (stereo not drawn)	-45.6
O=S1(=O)CCN2N=C(C34CC5CC(CC(C5)C3)C4)SC2=N1	12
COc1ccc(NC(=O)N2CCC(c3ccccc3)C2)c(OC)c1 (stereo not drawn)	-1.5
CCOP(=S)(OCC)Oc1cc(C)oc(=O)c1Cl	19.6
C=CCNc1nc(N)c(C(=O)c2ccc3c(c2)OCO3)s1	-19.7
O=C(O)CN1C(=O)C(=O)N(Cc2cccc(F)c2)C1=O	18.8
CC(=O)Nc1ccc(NC(=O)C2CC(=O)N(c3cccc(C)c3C)C2)cc1 (stereo not drawn)	9.48
Cc1ccc(S(=O)(=O)NCC(=O)N(CC(=O)NCC2CCCO2)c2ccc(Cl)cc2)cc1 (stereo not drawn)	-28.7
NS(=O)(=O)c1ccc(NC(=O)CN2CCCCC2)cc1	-2.19
COc1ccc(CSc2nnc(-c3ccncc3)n2C)cc1F	12.1
Cc1nc(=O)c(-c2ccccc2)c(C)n1CCO	18.6
CCOC(=O)c1c(C)nc(-c2ccccc2)nc1NC(=O)C(C)C	5.9
C=CCN1C(=O)N(/C=C/C)c2cccc3cccc1c23	8.89
CCOC(=O)C1C(=O)OC(C)(C)C1C(CC)C(=O)c1c(C)cc(C)cc1C (stereo not drawn)	-7.51
O=C(O)CCc1ccc(-c2cccs2)n1NC(=O)c1ccc(O)cc1	-6.38
O=S(=O)(NC1CC1)c1ccc(Cl)cc1F	8.33
CC1C(=O)NN=C1C(=O)N/N=C/c1ccco1 (stereo not drawn)	7.6
CCOC(=O)[C@@H]1C(c2c(OC)cc(OC)cc2OC)=NO[C@@H]1C(=O)OCC	-9.78
O=c1c(-c2c(O)cc(O)c3c(=O)cc(-c4ccc(O)cc4)oc23)c(-c2ccc(O)cc2)oc2cc(O)cc(O)c12	21.9
CC1(C(=O)N2CCN(Cc3ccccc3Cl)CC2)CC1(Cl)Cl (stereo not drawn)	1.51
CCN(CC)C(=O)Oc1nnc(SC(C)C)n1-c1ccc(Cl)c(Cl)c1	-7.2
S=C(Nc1ccc(Oc2ccccc2)cc1)Nc1cccnc1	-4.7

SMILES	hERG current change (%, negative = inhibition) at 10uM [%]
Cc1ccc(C)c(OCC(=O)NNC(=O)C2CC2)c1	-3.18
CSc1nnc(C(C)(C)C)c(=O)n1/N=C/c1ccc(C(C)C)cc1	28.3
O=C1CN(C(=O)COC(=O)c2ccc([N+](=O)[O-])o2)c2ccccc2N1	1.92
CCn1cc(C(=O)Nc2cccc(C)c2)c(=O)c2ccc(C)nc21	19.5
COC(=O)C1(C)CC1(c1ccccc1)c1ccccc1 (stereo not drawn)	-3.98
COc1ccc(Br)cc1C1CC(=O)N2CN(Cc3ccccc3)CSC2=C1C#N (stereo not drawn)	13.2
COCCn1c(=O)[nH]c2cc(C(=O)Nc3cc(OC)c(OC)c(OC)c3)ccc2c1=O	10.6
N#Cc1c(-c2ccco2)cc(-c2ccc(F)cc2)nc1N	-2.08
CC(C)CNC(=O)c1cccc(NC(=O)CSc2ccc(Cl)cc2)c1	-5.39
COC(=O)c1cn(CC(=O)NC2CCCCCC2)c2ccccc12	-2.33
CCCSc1ccc([C@@H]2[C@H]3C(=O)N(CC)C(=O)[C@H]3[C@]3(C(=O)OC)CCCCN23)cc1.O=C(O)C(F)(F)F	2.18
Cc1[nH]oc(=O)c1N=Nc1c(Cl)cccc1Cl	-1.98
Cc1cc(C)cc(NC(=O)CCNC(=O)N2C[C@H]3C[C@@H](C2)c2cccc(=O)n2C3)c1	10.2
COc1ccc(-c2cc(C(=O)Nc3sc4c(c3C#N)CCCC4)c3ccccc3n2)cc1OC	14.3
COc1ccc(CNC(=O)C/C(C)=N/NC(=O)COc2ccccc2)cc1	-19.5
N#Cc1ccsc1NC(=O)CCc1ccccc1	-9.24
COc1ccccc1NC(=O)COc1ccc(Br)cc1CNC1CCCC1	-53.2
Cc1cc(C)nc(/N=C(\N)Nc2ccc3c(c2)OCCO3)n1	6.67
O=C(c1cc(C(=O)NCCc2ccccc2)c(=O)n(CCc2ccccc2)c1)c1cc(Cl)ccc1O	-8.43
O=c1c2ccccc2nnn1COc1cccc(Cl)c1	2.08
CC1(C)CC(=O)C2=C(C1)c1c(ccc3ccccc13)NC2c1ccc(Br)o1 (stereo not drawn)	9.38

Reference: paper PMC4336329 (PLoS ONE, 2015)
